Experimental findings from ChEMBL document CHEMBL4888484, “Replenishing the malaria drug discovery pipeline: Screening and hit evaluation of the MMV Hit Generation Library 1 (HGL1) against asexual blood stage Plasmodium falciparum ,using a nano luciferase reporter read-out” (2022) are described below.

About 540 (0.36%) of roughly 150,000 compounds showed an effect of 50% or more. Some of the results follow.

This test relates to Plasmodium falciparum. Put plainly: Primary screen in NF54 nanoGlo assay, in single point, at 2uM, 72h; a lower Z score goes with more inhibition. Format: functional, Erythrocyte. As to conditions: timepoint 72 hour.
Broadly, the % Inhibition is the drop in the measured response relative to a control, in per cent. For `Cc1ccc(C(=O)C2CN(c3ccccc3)CC2C(=O)c2ccc(C)cc2)cc1` (centres undefined), the “% Inhibition” value came to 1% and the Z score was -0.11.

Regarding `Cc1cccc(N2CCN(C(=O)CN(C)c3nnc(N4CCCCC4=O)s3)CC2)c1C`, the “% Inhibition” value is given as -12% and the Z score is reported as 2.21.

Take `Cc1cccc(-c2ccc3nc(-c4ccc(Cl)cc4)c(CN4CCN(C(=O)c5cccs5)CC4)n3c2)c1`: the “% Inhibition” value was -14% and the Z score was 2.

Regarding `C[C@@H](c1cncs1)N(C)C(=O)c1cn2c(n1)CNCC2`, the “% Inhibition” value is reported as -6% and the Z score is listed as 0.99.

As to `Nc1cc(S(=O)(=O)N2CCCCC2)ccc1N1CCCCCC1`, the “% Inhibition” value was -15% and the Z score amounted to 1.7.

In the case of `Cc1cccc(OC[C@]2(CNC(=O)c3cc(C)nn3C)C[C@@H](O)[C@@H](O)C2)n1`, the “% Inhibition” value is given as 28% and the Z score is recorded as -3.24.

For the compound `CC(NC(=O)C1CC1C)c1ccccn1` (centres undefined), the “% Inhibition” value is recorded as 0% and the Z score amounted to 0.08.

For `Cc1cc(N(C)C)nc(NCCNC(=O)Nc2cccc(C)c2C)n1`, the “% Inhibition” value is reported as -2% and the Z score was 0.29.

For `CN(CC(=O)NC(C)(C)C)C[C@H](O)c1ccc(Br)cc1`, the “% Inhibition” value is given as 3% and the Z score is on record as -0.24.

For `Cc1ncc2c(n1)CC[C@H](NCc1csc(C(F)(F)F)n1)C2`, the “% Inhibition” value was 1% and the Z score was -0.1.

On to `O=C(Cn1ccc2ccc(N3CCOCC3)nc21)NCc1ccccc1Br`, for which the “% Inhibition” value is on record as -2% and the Z score worked out at 0.27.

As for `CCC(C)C(C)NC(=O)C1COCCN1` (centres undefined), the “% Inhibition” value is -7% and the Z score is 1.

As for `CC1CCCC(OCc2cccc(NC(=O)C(=O)Nc3cnn(C)c3)c2)C1` (centres undefined), the “% Inhibition” value was -2% and the Z score was 0.25.

Take `O=C1CC[C@H](NCCC2=CCCCC2)CCN1CC1CC1`: the “% Inhibition” value came out at 7% and the Z score is given as -1.09.

For the compound `CCN(C)c1nc(N2CCOCC2)nc2c1CNCC2`, the “% Inhibition” value is -5% and the Z score is reported as 0.5.

`Cc1c(NC2CCN(C(C)C)CC2)cccc1N1C(=O)CCC1=O`: the “% Inhibition” value is -6% and the Z score is on record as 0.77.

Consider `CCOC(=O)c1nn(-c2ccccc2)cc1CN1CCN(C(=O)c2ccccc2)CC1`, for which the “% Inhibition” value was -10% and the Z score is on record as 1.25.

As for `O=C(CCc1ccc(S(=O)(=O)N2CCCC2)cc1)Nc1ccc(F)c(F)c1F`, the “% Inhibition” value is -1% and the Z score stood at 0.15.

Consider `O=C(Nc1c(F)cccc1F)N1CCC(Cn2c(COc3ccccc3)nc3ccccc32)CC1`, for which the “% Inhibition” value came out at 17% and the Z score was -1.95.

As to `O=C(NCc1ccc(F)cc1)Nc1ccc2nncn2c1`, the “% Inhibition” value is reported as -9% and the Z score was 1.78.

As to `CCc1ccc(CN(CC)Cc2noc(C)n2)nc1`, the “% Inhibition” value was 5% and the Z score was -0.86.

Take `c1ccc(-c2cc(CC3(NCc4ccco4)COC3)no2)nc1`: the “% Inhibition” value was 0% and the Z score is reported as -0.02.

Regarding `COc1cc(C(=O)N2C[C@@H]3CC[C@H]2CN(Cc2[nH]cnc2C)C3)ccn1`, the “% Inhibition” value is listed as -14% and the Z score is recorded as 2.26.

For the compound `COc1ccc(-c2nn(-c3ccccc3C)c3c2C(C)=CC(=O)[C@H]3CC(=O)NC2CCCC2)cc1`, the “% Inhibition” value was 1% and the Z score is recorded as -0.15.

`CN(C(=O)Cn1ncn(C)c1=O)c1ccccc1-c1ccccc1`: the “% Inhibition” value is -7% and the Z score is recorded as 1.11.

For the compound `c1ccc2sc([C@@H]3CCCN3c3nccn4cnnc34)nc2c1`, the “% Inhibition” value is reported as -13% and the Z score was 1.72.

Regarding `O=C(NCc1ccc(F)cc1)c1cc2n(n1)CCN(CC1CC1)C2=O`, the “% Inhibition” value is reported as -1% and the Z score was found to be 0.07.

On to `O=C(c1cccc(F)c1)N1CCC[C@H](OCc2cccc(F)c2F)C1`, for which the “% Inhibition” value came to 3% and the Z score is reported as -0.52.

In the case of `O=C(NC[C@H]1O[C@@H]2C[C@@H](CC(=O)N3CCC(F)(F)C3)O[C@@H]2[C@@H]1O)Nc1cccnc1`, the “% Inhibition” value was -9% and the Z score was found to be 1.39.

In the case of `OCCN[C@@H](CC(F)(F)F)c1ccc(Cl)cc1`, the “% Inhibition” value is given as -9% and the Z score is listed as 1.16.

Take `Cc1ccc(NC(=O)c2cnn(CC3CC3)c2)cc1N1C(=O)CNC1=O`: the “% Inhibition” value is listed as -1% and the Z score is reported as 0.23.

On to `CC(C)(CNC(=O)C1(C#N)CCCC1)c1cccs1`, for which the “% Inhibition” value is reported as -2% and the Z score is on record as 0.43.

As for `CCC(=O)N1CCc2cc(C)c(S(=O)(=O)NCc3ccco3)cc21`, the “% Inhibition” value is listed as -8% and the Z score is reported as 1.64.

As for `CCc1noc(C)c1NC(=O)N1Cc2cccnc2N2CCC[C@@H]2C1`, the “% Inhibition” value is reported as -16% and the Z score was 1.64.

Take `COC(=O)C[C@H](c1cc(OC)c2c(c1)OCCO2)c1c(C)[nH][nH]c1=O`: the “% Inhibition” value is on record as -2% and the Z score was determined as 0.22.

`Cc1cc(NS(=O)(=O)c2cc(F)ccc2OC(C)C)cc(C)n1`: the “% Inhibition” value was found to be 0% and the Z score is listed as -0.01.

With `COC(=O)[C@H](C)N(Cc1ccccc1)C(=O)c1noc2c1CCCC2`, the “% Inhibition” value is -5% and the Z score was found to be 0.86.

As to `Nc1nc2ccc(N3CCOCC3)cc2s1`, the “% Inhibition” value was -13% and the Z score is 1.6.

Consider `O=S(=O)(N[C@@H]1C[C@H]2CC[C@@H]1C2)c1cccs1`, for which the “% Inhibition” value is given as -10% and the Z score is 1.52.

For the compound `COc1cccc(N2C[C@H](Cc3ccccc3)N(C(=O)CCC(N)=O)CC2=O)c1`, the “% Inhibition” value is on record as -1% and the Z score worked out at 0.14.

`Cn1nccc1CCC(=O)N[C@H]1CCOC[C@@H]1Oc1ccccn1`: the “% Inhibition” value is -18% and the Z score came to 1.8.

For `COc1ccc(OC)c([C@@H]2CCCN2CN2C(=O)NC3(CCCCCCC3)C2=O)c1`, the “% Inhibition” value is reported as -15% and the Z score worked out at 2.76.
